{"source": "ChEMBL document CHEMBL4888484", "about": "“Replenishing the malaria drug discovery pipeline: Screening and hit evaluation of the MMV Hit Generation Library 1 (HGL1) against asexual blood stage Plasmodium falciparum ,using a nano luciferase reporter read-out” (2022)", "note": "In all, about 150,000 compounds went through this assay and about 540 (0.36%) showed an effect of 50% or more. The list shows a part of the results.", "data": [{"system": "Plasmodium falciparum", "test": "Primary screen in NF54 nanoGlo assay, in single point, at 2uM, 72h; a lower Z score goes with more inhibition", "assay_type": "functional, Erythrocyte", "settings": "timepoint 72 hour", "units": {"% Inhibition": "%"}, "values": [{"smiles": "CC(=O)N[C@@H]1CN(C(=O)CCc2nc3ccccc3[nH]2)C[C@H]1CO", "% Inhibition": -4, "Z score": 0.64}, {"smiles": "Cn1c(C2CCN(C(=O)c3ccnnc3)CC2)nc2ccccc21", "% Inhibition": -13, "Z score": 2.46}, {"smiles": "COc1ccc(OCc2nc(CCN(C)S(=O)(=O)c3ccc(C(C)C)cc3)no2)cc1", "% Inhibition": -4, "Z score": 0.37}, {"smiles": "CCc1ccc(OCc2nnc(C3CCC3)n2C)c(OC)c1", "% Inhibition": -6, "Z score": 0.89}, {"smiles": "Cc1ccc(C(=O)NCc2ccc(N(C)c3ccccc3)nc2)c(=O)[nH]1", "% Inhibition": -1, "Z score": 0.13}, {"smiles": "CC(C)C(CNC1CCCOCC1)ONC(=O)OC(C)(C)C", "note": "(stereo not drawn)", "% Inhibition": -7, "Z score": 0.98}, {"smiles": "COc1ccccc1N1C(=O)[C@@H]2Cc3c([nH]c4ccccc34)C(C)(C)N2C1=O", "% Inhibition": 9, "Z score": -1.74}, {"smiles": "CC(=O)N(Cc1ccc(NCc2cnc3ccnn3c2)cc1)C(C)C", "% Inhibition": -5, "Z score": 0.71}, {"smiles": "COCC1CN(C(=O)Nc2ccnc3cc(C)nn23)C1", "% Inhibition": -6, "Z score": 1.12}, {"smiles": "CCn1cc(S(=O)(=O)N[C@@H]2[C@@H]3CCO[C@@H]3[C@H]2N(C)C)cn1", "% Inhibition": 13, "Z score": -1.64}, {"smiles": "OC[C@H]1CCCN1c1ccc(Br)cn1", "% Inhibition": -10, "Z score": 1.5}, {"smiles": "N#Cc1ccnc(Nc2ccc3c(c2)OCO3)c1", "% Inhibition": -3, "Z score": 0.26}, {"smiles": "COc1cccc(C2(NC(=O)c3cnc(C)nc3C)CCOCC2)c1F", "% Inhibition": -17, "Z score": 2.81}, {"smiles": "Cc1cc(C)c2nc(C)cc(Nc3ccc(O)cc3)c2c1", "% Inhibition": 85, "Z score": -12.86}, {"smiles": "O=S(=O)(Cc1ccccc1)N1CCC(c2cc[nH]n2)CC1", "% Inhibition": -9, "Z score": 1.22}, {"smiles": "O=C(NCc1ccncc1)c1ccc(OCc2ccccc2)cc1", "% Inhibition": -4, "Z score": 0.57}, {"smiles": "CCc1csc(CNC(=O)c2ccc(N3CCCO3)nc2)n1", "% Inhibition": -16, "Z score": 1.46}, {"smiles": "O=C(c1ccccc1C(F)(F)F)N1CCc2ccccc2[C@H]1c1ccccc1F", "% Inhibition": 3, "Z score": -0.4}, {"smiles": "Cc1cc(C)c(-c2[nH]ncc2-c2nc3ccccc3s2)c(O)c1", "% Inhibition": -9, "Z score": 0.79}, {"smiles": "O=C(c1ccc(S(=O)(=O)N[C@H]2CCCc3ccccc32)s1)N1CCCC1", "% Inhibition": -10, "Z score": 1.94}, {"smiles": "Cn1c2c(c(=O)n(C)c1=O)Cc1ccccc1N2", "% Inhibition": 8, "Z score": -1.29}, {"smiles": "COc1cn(CC(=O)Nc2cccnc2)c(CO)cc1=O", "% Inhibition": 32, "Z score": -3.57}, {"smiles": "Cc1cc2nc(C(=O)N3CCC[C@H]3c3ccc(CN(C)C)cc3)cc(C)n2n1", "% Inhibition": -2, "Z score": 0.33}, {"smiles": "O=C(Cn1ccc(C(F)(F)F)n1)N1Cc2cccnc2C1", "% Inhibition": -5, "Z score": 0.68}, {"smiles": "CC(=O)c1ccc(F)c(-c2ccc(C(=O)N(C)C[C@H]3COCCO3)cc2)c1", "% Inhibition": -17, "Z score": 1.71}, {"smiles": "O=C1CN(C[C@@H](O)CN2C(=O)c3ccccc3C2=O)CCN1", "% Inhibition": -5, "Z score": 1.02}, {"smiles": "COCCN1CCC2(CC1)C[C@@H](c1ccccc1)C(=O)N(C1CC1)C2", "% Inhibition": -12, "Z score": 1.13}, {"smiles": "N[C@@H](Cc1ccccc1)C(O)(c1ccccc1)c1ccccc1", "% Inhibition": -9, "Z score": 1.39}, {"smiles": "Cc1ccc(CNC(=O)Nc2ccccc2N2CCCC2)cc1", "% Inhibition": -5, "Z score": 0.46}, {"smiles": "CCCc1nc(N2CCCN(C(=O)COCc3ccccc3)CC2)c2c(-c3ccccc3)noc2n1", "% Inhibition": -4, "Z score": 0.54}, {"smiles": "COc1ccc(OCc2cc(C(=O)N[C@H]3CCCNC3=O)n[nH]2)c(Cl)c1", "% Inhibition": -6, "Z score": 1.08}, {"smiles": "Cc1ccc(NC(=O)c2cn3c(n2)CC[C@H](c2ccccc2C)C3)cc1", "% Inhibition": 5, "Z score": -0.85}, {"smiles": "O=C(Cc1c[nH]c(=O)[nH]c1=O)N1CC[C@@]2(CCCN(CC3CCC3)C2=O)C1", "% Inhibition": -21, "Z score": 2.24}, {"smiles": "Cc1cc(NC(=O)CCOc2cc(C)c(C)nn2)no1", "% Inhibition": -19, "Z score": 1.74}, {"smiles": "Cc1cc(C#N)ccc1-c1cccc(C(=O)N2CCNC(=O)[C@@H]2CCO)c1", "% Inhibition": -9, "Z score": 0.79}, {"smiles": "CC1(C)OB(C2CCN(C(=O)OCC(F)(F)F)CC2)OC1(C)C", "% Inhibition": 3, "Z score": -0.41}, {"smiles": "Cc1c(C(=O)N[C@H]2CCCN(c3ccccc3F)C2)nnn1C(C)C", "% Inhibition": -1, "Z score": 0.16}, {"smiles": "O=C(c1cccc2cnccc12)N1CC[C@H](O)[C@@H](O)C1", "% Inhibition": 5, "Z score": -0.59}, {"smiles": "Cc1cnc(C2CC2)n1CCNC(=O)c1ccccn1", "% Inhibition": -14, "Z score": 2.29}, {"smiles": "Cc1nc2cc(C(=O)OCc3cccc(N(C)C)c3)cnc2[nH]1", "% Inhibition": -11, "Z score": 1.42}, {"smiles": "CC(C)[C@H](C)N(CCS(=O)(=O)c1ccc(Cl)cc1)C1CC1", "% Inhibition": -13, "Z score": 1.27}, {"smiles": "C[C@H]1CN(C(=O)CN(C)c2cnccn2)CC(C)(C)O1", "% Inhibition": -11, "Z score": 1.92}, {"smiles": "CN(Cc1ccc(F)cc1Cl)C(=O)[C@@]1(C)CCNC1", "% Inhibition": -2, "Z score": 0.3}, {"smiles": "Cc1ncnc(N2CCN(C3CCN(C(C)C)CC3)[C@@H](CCO)C2)c1C", "% Inhibition": 7, "Z score": -1.02}, {"smiles": "COc1ccc(CNC(=O)Cn2c3ccccc3c3cn[nH]c(=O)c32)cc1", "% Inhibition": -10, "Z score": 1.95}, {"smiles": "CC(C)(C)c1cc(NC(=O)c2cnc(OC3CCOCC3)c(Cl)c2)on1", "% Inhibition": 3, "Z score": -0.62}, {"smiles": "CCOC(=O)c1nn(CCC(C)C)c2c1CN(C(=O)c1cc(C)[nH]n1)CC2", "% Inhibition": -12, "Z score": 1.6}, {"smiles": "O=C1CN(C(=O)c2cc(O)ccc2Cl)CN1CC(F)(F)F", "% Inhibition": 4, "Z score": -0.43}, {"smiles": "CCCCC(NC(=O)CC(c1nccn1C)C(F)(F)F)C(=O)O", "note": "(stereo not drawn)", "% Inhibition": -14, "Z score": 2.6}, {"smiles": "O=C(O)CCCC(=O)Nc1ccc(Br)cc1Br", "% Inhibition": -12, "Z score": 1.63}, {"smiles": "Cc1cccc2c(-c3ncn(CC(=O)O)n3)c[nH]c12", "% Inhibition": -6, "Z score": 1.27}, {"smiles": "c1ccc(-c2nnc[nH]2)c(OCCO[C@@H]2CCCCO2)c1", "% Inhibition": -1, "Z score": 0.14}, {"smiles": "CN1C(=O)C[C@H](C(=O)N2CCc3c(O)cccc3C2)[C@H]1c1nccn1C", "% Inhibition": -5, "Z score": 0.79}, {"smiles": "CC(C)CN1CC2(CCN(c3nccc(N4CCC[C@H](O)C4)n3)CC2)CC1=O", "% Inhibition": -11, "Z score": 2.15}]}]}
